This note sets out measurements from ChEMBL document CHEMBL4888484, “Replenishing the malaria drug discovery pipeline: Screening and hit evaluation of the MMV Hit Generation Library 1 (HGL1) against asexual blood stage Plasmodium falciparum ,using a nano luciferase reporter read-out” (2022).

By % Inhibition is commonly meant the drop in the measured response relative to a control, in per cent.

Hit rate of the full screen: of about 150,000 compounds, about 540 (0.36%) showed an effect of 50% or more. The list shows a part of the results.

This test has as its system Plasmodium falciparum. As to the kind of experiment: Primary screen in NF54 nanoGlo assay, in single point, at 2uM, 72h; a lower Z score goes with more inhibition. Type of test: functional, Erythrocyte. The following applies: timepoint 72 hour.
On to `O=C1C[C@H](C(=O)N2CCC(CO)(Cc3ccccc3)CC2)CN1Cc1ccncc1`, for which the “% Inhibition” value was determined as 2% and the Z score is listed as -0.37.

In the case of `C[C@@H](C(=O)NC1CCCC1)N(C)Cc1n[nH]c2c1CCCCC2`, the “% Inhibition” value is reported as -1% and the Z score is listed as 0.24.

As to `O=c1nc2n(nc1-c1ccc(F)cc1)C1(CCCC1)Nc1ccccc1-2`, the “% Inhibition” value was -9% and the Z score was 0.98.

Take `Cc1ncc(C(=O)NCCc2csc(N3CCCC3)n2)c(C(C)C)n1`: the “% Inhibition” value is recorded as -12% and the Z score stood at 1.69.

Take `CCN(CC)C(=O)N1CCN(C(=O)c2ccncc2Cl)CC1`: the “% Inhibition” value was determined as 0% and the Z score is recorded as 0.

Take `Cc1ccc(-c2nn(-c3ccccc3)cc2C(=O)N2CCCCC2)o1`: the “% Inhibition” value was -17% and the Z score was found to be 2.17.

As to `Cc1ccc(N2CCC(CNC(=O)c3cccnc3)CC2)nn1`, the “% Inhibition” value is given as -9% and the Z score was 1.18.

`Cc1noc(C)c1CN(C)C(=O)c1ccc2[nH]cnc2c1`: the “% Inhibition” value is recorded as -9% and the Z score came to 1.28.

As for `CC(C)C(=O)N(CCCN1CCCC1)[C@H]1CCCN(C(=O)c2cn(C)cn2)C1`, the “% Inhibition” value was -4% and the Z score was 0.66.

As for `COC(=O)c1ccc(NC(=O)C[C@@H]2NC(=O)N(Cc3ccccc3Cl)C2=O)cc1`, the “% Inhibition” value was -11% and the Z score came to 1.59.

For the compound `O=c1c2ccccc2ncn1Cc1nnc(-c2ccccc2)o1`, the “% Inhibition” value is reported as -11% and the Z score stood at 1.06.

Take `Cn1cnc2c1CCN(C(=O)c1cc(OC(F)F)n(C)n1)C21CCOCC1`: the “% Inhibition” value was -11% and the Z score came out at 1.88.

`CCO[C@H]1COC[C@@H]1NC(=O)CCn1ccnc1`: the “% Inhibition” value was determined as 5% and the Z score was -0.93.

Consider `CCC(=O)N1CCC2(CC1)C[C@@H](Cc1ccccc1)CCO2`, for which the “% Inhibition” value is 9% and the Z score was -0.97.

Consider `Cc1ccc(N(C)C(=O)C2CC=CC2)cc1N(C)C(=O)C1CC=CC1`, for which the “% Inhibition” value is -10% and the Z score is 1.19.

With `COc1ccc(NC(=O)Nc2ccc3nn[nH]c(=O)c3c2)cc1`, the “% Inhibition” value is -4% and the Z score came out at 0.5.

With `CC(C)CCn1c(=O)c2sccc2n(CC(=O)N(C)c2ccccc2)c1=O`, the “% Inhibition” value was 36% and the Z score is -1.24.

With `NC(=O)[C@@H]1CN(CCNC(=O)OCC(F)(F)F)CCO1`, the “% Inhibition” value is on record as -6% and the Z score came out at 1.19.

On to `Cc1cc(C(=O)NC[C@@](C)(O)CCc2ccccc2)no1`, for which the “% Inhibition” value is reported as -10% and the Z score stood at 1.75.

As for `CC[C@H]1CN(C(=O)CN2CCCCCCC2)CCO1`, the “% Inhibition” value was -13% and the Z score is on record as 1.67.

Consider `C[C@H]1CN(Cc2csnn2)c2cccc(F)c2O1`, for which the “% Inhibition” value is recorded as -14% and the Z score worked out at 1.57.

As for `CC(C)c1cnc(NCc2ccncc2)s1`, the “% Inhibition” value is -16% and the Z score stood at 1.58.

For `O=c1[nH]ccnc1N1CCN(Cc2nc(-c3cccnc3)no2)CC1`, the “% Inhibition” value is given as 2% and the Z score is -0.32.

Consider `O=C(NC(c1cccs1)C1CC1)N[C@@H]1Cc2ccccc2[C@H]1O` (some centres undefined), for which the “% Inhibition” value was -3% and the Z score was determined as 0.31.

As for `CCCc1noc(CN(C)C(=O)c2n[nH]c3c2COCC3)n1`, the “% Inhibition” value was 1% and the Z score was -0.14.

Regarding `CCc1cc(C(=O)N2CCC(c3nc4ccccc4s3)CC2)sc1-c1ccccc1`, the “% Inhibition” value turned out to be 0% and the Z score amounted to 0.04.

`N[C@@H](CC1CCCCC1)C(=O)N1CCCn2cncc2C1`: the “% Inhibition” value is on record as 1% and the Z score is -0.18.

With `CS(=O)(=O)N1CCN(c2ccc(N3CCOCC3)nn2)CC1`, the “% Inhibition” value is -13% and the Z score amounted to 2.07.

On to `CCCCN(C)C[C@@H]1OC[C@H](NC(=O)c2ccccc2)[C@H]1O`, for which the “% Inhibition” value came out at 2% and the Z score is reported as -0.39.

As to `C#CC[C@H](C)OC(=O)c1c(C)nn(C)c1OC`, the “% Inhibition” value came out at 3% and the Z score is recorded as -0.46.

For the compound `Cc1ccc(CNC(=O)[C@H]2CCCN(c3ccnc(-c4ccc(C)cc4)n3)C2)cc1`, the “% Inhibition” value was -10% and the Z score came to 1.15.

With `OC[C@@]1(CCc2ccccc2)CCCN(Cc2nc3ccccc3[nH]2)C1`, the “% Inhibition” value is -10% and the Z score worked out at 1.26.

For the compound `Cc1ccc(-c2nc3cccnc3s2)cc1NC(=O)CCCc1ccccc1`, the “% Inhibition” value was -8% and the Z score turned out to be 1.62.

Regarding `COCCn1nc(C(=O)NCc2cc(C)nn2C)c2c1CCOC2`, the “% Inhibition” value came out at 7% and the Z score is given as -1.03.

In the case of `COCc1nc([C@H]2C[C@H](NC(=O)c3c[nH]c(=O)c(Cl)c3)C2)cc(=O)[nH]1`, the “% Inhibition” value is -9% and the Z score is 1.51.

As to `CC(C)c1nccc(N2CCOC[C@@H](C3CCC3)C2)n1`, the “% Inhibition” value is listed as -14% and the Z score was determined as 1.86.

On to `COc1ccc(C(=O)NC2CCN(Cc3ccccc3)CC2)cc1S(=O)(=O)N1CC(C)CC(C)C1` (centres undefined), for which the “% Inhibition” value stood at 11% and the Z score is -0.94.

Take `Cc1nnccc1NC(=O)NCC1(C)CCCC1`: the “% Inhibition” value is -18% and the Z score is listed as 2.8.

Turning to `COc1c(F)c(F)c(S(=O)(=O)Nc2cccc3c2CCCC3)c(F)c1F`, the “% Inhibition” value is 2% and the Z score is -0.38.

For the compound `O=C(O)Cc1csc(Nc2cccc3ncccc23)n1`, the “% Inhibition” value stood at 9% and the Z score is -1.36.

For `CCCS(=O)(=O)NC[C@H](C)N1CCC(CC)(CC)C1`, the “% Inhibition” value is -10% and the Z score was 1.8.

Regarding `Cc1ccc(NS(=O)(=O)c2cc3n(c2)CCCNC3=O)c(F)c1`, the “% Inhibition” value was -22% and the Z score is reported as 2.62.
